# Experimental data: PubChem BioAssay AID624417 (National Center for Advancing Translational Sciences (NCATS), 2012)
# The campaign covered roughly 410,000 compounds. About 6,400 (1.6%) were called active. The inconclusive results got no clear call from the source; some entries with a clear call stand among them for comparison. Calls come from the whole dose curve; as a rule, active = well fitted inhibition curve with a large enough effect; inconclusive = small, poorly fitted or top-dose-only effect; inactive = no such curve, though single readings can be large or run the other way. No potency is given beside an inconclusive call; the fits are too rough.
# Biological target: Glucagon-like peptide 1 receptor (Homo sapiens) (UniProt P43220)
# UniProt P43220, sequence (P43220 whole entry, looked up): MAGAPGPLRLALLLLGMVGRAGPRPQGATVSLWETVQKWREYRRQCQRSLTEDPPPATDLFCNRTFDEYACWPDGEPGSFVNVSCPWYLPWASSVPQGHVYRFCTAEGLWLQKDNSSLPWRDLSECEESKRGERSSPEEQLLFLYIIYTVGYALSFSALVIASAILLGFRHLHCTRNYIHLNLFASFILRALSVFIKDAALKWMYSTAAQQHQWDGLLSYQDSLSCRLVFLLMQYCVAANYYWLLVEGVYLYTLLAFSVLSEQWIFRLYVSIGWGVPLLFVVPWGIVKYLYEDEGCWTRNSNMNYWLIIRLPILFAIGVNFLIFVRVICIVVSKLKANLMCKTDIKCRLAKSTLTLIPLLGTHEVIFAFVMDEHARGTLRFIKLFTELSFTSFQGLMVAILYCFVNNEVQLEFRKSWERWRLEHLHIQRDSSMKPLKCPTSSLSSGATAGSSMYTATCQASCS
# Assay: qHTS of GLP-1 Receptor Inverse Agonists (Inhibition Mode); note: nearly all actives have a fitted effect of over 55% in size
# Settings: HEK293 GLP-1R CRE-luciferase, luminescence, 24 h, GLP-1R form is constitutively active; series mostly up to 38.3 µM
# How it was run: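 Inverse agonism was detected as reduced cAMP-driven luciferase luminescence after 24 h compound treatment. The cells were HEK293 clones expressing constitutively active human GLP-1R with the reporter. Reporter-only and GPR119 cell lines served as counterscreen controls.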
# Potency is the fitted concentration of half-maximal effect; tags give direction and shape of the fitted curve.
row,SMILES,Potency
1,COC(=O)c1ccc(Cn2c(SCc3ccccc3F)nc3ccncc32)cc1,inactive
2,CC(C)CN(C(=O)COC(=O)c1ccccn1)c1c(N)n(Cc2ccccc2)c(=O)[nH]c1=O,inactive
3,O=C1C(Cl)=C(NCCc2ccccc2)C(=O)c2ccccc21,"inconclusive [inhibitor, single point]"
4,C(=C\c1ccccc1)/CN1CCN(C(c2cc3ccccc3o2)c2nnnn2Cc2ccccc2)CC1 (configuration not stated),inactive
5,C/C(=N\NC(=O)c1ccccc1OCCOc1ccccc1)c1ccccc1F,"inconclusive [inhibitor, single point]"
6,Cc1cc(NC(=O)CSc2nnc(CNC(=O)c3ccccc3)o2)no1,inactive
7,COc1ccc(NC(=O)CSc2nc3ccccc3nc2N2CCOCC2)cc1,"inconclusive [inhibitor, single point]"
8,COc1ccc(Nc2cc(C)c3ccc(O)cc3n2)cc1,"inconclusive [inhibitor, single point]"
9,Cc1nc2nc(NCc3cccc(Cl)c3)[nH]n2c(=O)c1Cc1ccccc1,inactive
10,CCCCNc1nc2cccnc2s1,inactive
11,Cc1ccc(N(C(=O)c2nsc(Cl)c2Cl)C(C(=O)NC2CCCC2)c2ccc(O)cc2)cc1C (configuration not stated),"inconclusive [inhibitor, full curve, poor fit]"
12,COc1cc(OC)c(NC(=O)N2CCOCC2)cc1Cl,inactive
13,CCN1CCc2nc3sc(C(=O)c4ccccc4)c(N)c3cc2C1,inactive
14,CN(C)c1ccc(NC(=O)CN2C(=O)CC(c3ccccc3)=Nc3ccccc32)cc1,"inconclusive [inhibitor, full curve]"
15,CCC(C)(C)NC(=O)C(c1ccccc1F)N(C(=O)c1ccn[nH]1)c1ccccc1 (configuration not stated),"inconclusive [inhibitor, single point]"
16,Cn1nccc1C(=O)Nc1ccc2c(c1)OCCO2,"inconclusive [inhibitor, partial curve, poor fit]"
17,Cc1ccc(CN2CCSc3ccc(C(=O)NCCCN4CCN(C)CC4)cc32)cc1,active: 5.62 µM
18,CC(OCC(O)CNCC1COc2ccccc2O1)c1ccc(Cl)cc1 (configuration not stated),"inconclusive [inhibitor, partial curve, poor fit]"
19,COc1cccc(OC)c1C(=O)OCC(=O)NC(=O)NCc1ccccc1,"inconclusive [inhibitor, partial curve, poor fit]"
20,Cc1cc(N)c2cc(NC(=O)/C=C/c3ccccc3Cl)ccc2n1,active: 11.2 µM
21,Cc1ccccc1NC(=S)NCC1CCN(C(C)c2ccccc2)C1 (configuration not stated),"inconclusive [inhibitor, partial curve, poor fit]"
22,CC(C)Oc1ccc(CNC(=O)CCC(=O)N2CCSc3ccccc32)cc1,"inconclusive [inhibitor, single point]"
23,COc1ccc(OC)c(CNC(=O)CCc2nc(-c3cccs3)no2)c1,"inconclusive [inhibitor, partial curve, poor fit]"

row,SMILES,Potency
1,O=C(OCC(=O)N1CCC(Cc2ccccc2)CC1)c1cncc(Br)c1,"inconclusive [inhibitor, single point]"
2,Cc1occc1-c1nnc(SCC(=O)c2ccc(F)cc2)n1Cc1ccco1,"inconclusive [inhibitor, single point]"
3,CCOC(=O)c1nnn(-c2nonc2N)c1-c1ccc(OC)cc1,inactive
4,Cc1ccc(S(=O)(=O)N(C)c2ccc(C(=O)Nc3cccc(C)n3)cc2)cc1,"inconclusive [inhibitor, single point]"
5,CCCCn1nnnc1C(CCc1ccccc1)N1CCN(C/C=C/c2ccccc2)CC1 (configuration not stated),"inconclusive [inhibitor, single point]"
6,Cc1ccc(NC(=O)CSc2nc(-c3ccc(C(C)(C)C)cc3)nc3cc(=O)[nH]n23)cc1C,"inconclusive [inhibitor, full curve]"
7,Cc1ccc2c(c1)nnn2C1CCN(C(=O)C23CC4CC(CC(C4)C2)C3)CC1,"inconclusive [inhibitor, full curve, poor fit]"
8,O=C(CSc1nc(Nc2ccccc2)nc(N2CCOCC2)n1)Nc1cccc([N+](=O)[O-])c1,active: 11.2 µM
9,COc1ccc(Cl)cc1Cn1c(C)c(C(=O)NCc2cccc(Cl)c2)sc1=O,"inconclusive [inhibitor, partial curve, poor fit]"
10,COc1ccc(C(CNC(=O)c2cccc(S(=O)(=O)N3CCCCC3)c2)N2CCCC2)cc1 (configuration not stated),"inconclusive [inhibitor, partial curve, poor fit]"
11,Cc1ccc(-c2nc(-c3cc4cccc(OCc5ccc(F)cc5)c4oc3=O)no2)cc1,inactive
12,CN(C)Cc1nc2c(c(=O)[nH]1)C1(CCCCC1)Cc1ccccc1-2,inactive
13,CC12CCC(C(=O)N3CCC(Cc4ccccc4)CC3)(C(=O)C1=O)C2(C)C (configuration not stated),"inconclusive [inhibitor, partial curve, poor fit]"
14,Cc1ccc(CNC(=O)C2CCCCN2S(=O)(=O)c2ccc(F)cc2)cc1 (configuration not stated),"inconclusive [inhibitor, single point]"
15,Cc1cccc(NC(=O)c2cc(-c3ccc4c(c3)OCCO4)on2)c1,"inconclusive [inhibitor, single point]"
16,CC1CCN(C(=O)c2ccc(COc3ccccc3Cl)o2)CC1,"inconclusive [inhibitor, partial curve, poor fit]"
17,CN1c2ccccc2-c2nc3ccccc3n2C1c1ccccn1 (configuration not stated),"inconclusive [inhibitor, single point]"
18,COC(=O)C(C)Nc1cccc(Br)c1 (configuration not stated),inactive
19,CCCn1c(C2CCCN2c2nc(-c3cccc(Br)c3)cs2)nc2cc(Cl)c(Cl)cc21 (configuration not stated),"inconclusive [inhibitor, partial curve, poor fit]"
20,Cc1cc(C)c(Cn2ncn(-c3ccc(Br)cc3)c2=O)c(C)c1,"inconclusive [inhibitor, partial curve]"
21,CCCCC(=O)NC(c1ccc(OC)c(OC)c1)c1c(O)ccc2ccccc12 (configuration not stated),"inconclusive [inhibitor, single point]"
22,Cc1ccc2nc(-c3ccccn3)oc2c1,"inconclusive [inhibitor, single point]"
23,O=C(N/N=C/c1ccccn1)c1cccc([N+](=O)[O-])c1,"inconclusive [inhibitor, single point]"

row,SMILES,Potency
1,COc1ccc(-c2noc(-c3ccccc3-c3ccccc3)n2)cc1OC,"inconclusive [inhibitor, single point]"
2,Cc1ccc(S(=O)(=O)N2CCN(Cc3ccccc3)CC2)cc1,"inconclusive [inhibitor, partial curve, poor fit]"
3,Cc1cc(Cl)ccc1OCC(=O)N1CCCN(C(=O)COc2ccc(Cl)cc2C)CC1,"inconclusive [inhibitor, partial curve, poor fit]"
4,CCSc1ncc(Cl)c(C(=O)N(Cc2ccc(N(C)C)cc2)Cc2ccco2)n1,"inconclusive [inhibitor, partial curve, poor fit]"
5,CC(=O)N1CCC2(CC1)NC(=O)N(c1ccccc1)N2,"inconclusive [inhibitor, full curve, poor fit]"
6,COc1ccc(/C(N)=N/OC(=O)C2CCCCC2)cc1,inactive
7,Cc1ccc2c(c1)C=CC(C#N)N2C(=O)c1ccccc1 (configuration not stated),"inconclusive [inhibitor, full curve, poor fit]"
8,O=C(CSc1ncc(C(F)(F)F)cc1Cl)N1CCN(S(=O)(=O)c2ccc(Cl)cc2)CC1,"inconclusive [inhibitor, partial curve, poor fit]"
9,CSc1nc(-c2ccc(Cl)cc2)nn1S(=O)(=O)c1ccccc1,inactive
10,O=C(Nc1cccc(NC(=O)c2ccc(Cl)cc2Cl)c1)c1cccnc1,"inconclusive [inhibitor, single point]"
11,COC(=O)c1ccc(CN2CCCCC2)cc1,inactive
12,CCCCCCn1c(=O)n2n(c1=O)[C@@H]1CN(S(=O)(=O)c3ccc(C)cc3)C[C@]1(O)[C@@H](OC(=O)NC1CCCC1)C2,"inconclusive [inhibitor, single point]"
13,Cc1cccc(-c2nnn3c2nc(NCCc2ccc(S(N)(=O)=O)cc2)c2ccccc23)c1,inactive
14,Cc1ccc(S(=O)(=O)N2CCCC2)cc1[N+](=O)[O-],inactive
15,COc1ccc(OC)c(NC(=O)CSc2cn(CC(=O)N3CCCCCC3)c3ccccc23)c1,"inconclusive [inhibitor, partial curve, poor fit]"
16,O=C(NCc1ccccc1)C1=C[C@@H](c2coc3ccccc3c2=O)C[C@@H](OCCCCO)O1,"inconclusive [inhibitor, partial curve]"
17,Cc1ccc(Cl)cc1N1CCN(C(=O)C2CCN(S(=O)(=O)c3cccnc3)CC2)CC1,"inconclusive [inhibitor, single point]"
18,Cc1ccccc1CNC(=O)CCNS(=O)(=O)c1ccc(OC(F)(F)F)cc1,inactive
19,CCOc1ccc(C(=O)Nc2c3c(nn2-c2ccc(C)cc2)CS(=O)C3)cc1OCC (configuration not stated),inactive
20,CN(C)CC1CCCCC1OC(=O)/C=C/c1ccccc1 (configuration not stated),"inconclusive [inhibitor, partial curve, poor fit]"
21,CN(C)S(=O)(=O)c1ccc(Nc2nc(C3CC3)nc3c2nnn3Cc2ccccc2Cl)cc1,inactive
